# Experimental data as given in the supplement of paper PMC8728848.
# This is one part of the list.
# Legend:
# Assay in all cases: glycan array binding signal (z-score within array); higher = stronger binding
# Details in all cases: glycan notation: IUPAC condensed, linker removed
# [1] = target: Fuc(a1-2)Gal(b1-4)[Fuc(a1-3)]GlcNAc
# Procedure, shortened: (§1)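 Arrays were curated from the Consortium for Functional Glycomics database, 3228 in total, and kept only where the protein sequence was available. Binding is expressed as a within-array Z-score. This score was averaged across arrays of the same protein sequence at different concentrations or buffers and across linkers, and negative values can be read as non-binding.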
# [2] = target: Fuc(a1-2)Gal(b1-4)[Fuc(a1-3)]GlcNAc(b1-2)Man(a1-3)[Fuc(a1-2)Gal(b1-4)[Fuc(a1-3)]GlcNAc(b1-2)Man(a1-6)]Man(b1-4)GlcNAc(b1-4)[Fuc(a1-6)]GlcNAc
# Procedure, shortened: as §1
# [3] = target: Fuc(a1-2)Gal(b1-4)[Fuc(a1-3)]GlcNAc(b1-2)[Fuc(a1-2)Gal(b1-4)[Fuc(a1-3)]GlcNAc(b1-4)]Man(a1-3)[Fuc(a1-2)Gal(b1-4)[Fuc(a1-3)]GlcNAc(b1-2)Man(a1-6)]Man(b1-4)GlcNAc(b1-4)GlcNAc
# Procedure, shortened: as §1
# [4] = target: Fuc(a1-2)Gal(b1-4)[Fuc(a1-3)]GlcNAc(b1-3)Gal(b1-4)[Fuc(a1-3)]GlcNAc
# Procedure, shortened: as §1
# [5] = target: Fuc(a1-2)Gal(b1-4)[Fuc(a1-3)]GlcNAc(b1-3)Gal(b1-4)[Fuc(a1-3)]GlcNAc(b1-3)Gal(b1-4)[Fuc(a1-3)]GlcNAc
# Procedure, shortened: as §1
# [6] = target: Fuc(a1-2)Gal(b1-4)[Fuc(a1-3)]GlcNAc(b1-3)GalNAc
# Procedure, shortened: as §1
# [7] = target: Fuc(a1-2)Gal(b1-4)[Fuc(a1-3)]GlcNAc(b1-3)[Neu5Ac(a2-6)Gal(b1-4)GlcNAc(b1-6)]Gal(b1-4)Glc
# Procedure, shortened: as §1
# [8] = target: Fuc(a1-2)Gal3S(b1-4)GlcNAc
# Procedure, shortened: as §1
# [9] = target: Fuc(a1-2)Gal6S(b1-3)GlcNAc
# Procedure, shortened: as §1
# [10] = target: Fuc(a1-2)Gal6S(b1-3)GlcNAc6S
# Procedure, shortened: as §1
# Fuc(a1-2)Gal6S(b1-4)Glc = target: Fuc(a1-2)Gal6S(b1-4)Glc
# Procedure, shortened: as §1
# [11] = target: Fuc(a1-2)Gal6S(b1-4)Glc6S
# Procedure, shortened: as §1
# Fuc(a1-2)[Gal(a1-3)]Gal = target: Fuc(a1-2)[Gal(a1-3)]Gal
# Procedure, shortened: as §1
# [12] = target: Fuc(a1-2)[Gal(a1-3)]Gal(b1-3)GalNAc
# Procedure, shortened: as §1
# [13] = target: Fuc(a1-2)[Gal(a1-3)]Gal(b1-3)GalNAc(b1-3)Gal(a1-4)Gal(b1-4)Glc
# Procedure, shortened: as §1
# [14] = target: Fuc(a1-2)[Gal(a1-3)]Gal(b1-3)GlcNAc
# Procedure, shortened: as §1
# [15] = target: Fuc(a1-2)[Gal(a1-3)]Gal(b1-3)GlcNAc(b1-2)Man(a1-3)[Fuc(a1-2)[Gal(a1-3)]Gal(b1-3)GlcNAc(b1-2)Man(a1-6)]Man(b1-4)GlcNAc(b1-4)GlcNAc
# Procedure, shortened: as §1
# [16] = target: Fuc(a1-2)[Gal(a1-3)]Gal(b1-3)GlcNAc(b1-2)Man(a1-3)[Fuc(a1-2)[Gal(a1-3)]Gal(b1-3)GlcNAc(b1-2)Man(a1-6)]Man(b1-4)GlcNAc(b1-4)[Fuc(a1-6)]GlcNAc
# Procedure, shortened: as §1
# [17] = target: Fuc(a1-2)[Gal(a1-3)]Gal(b1-3)GlcNAc(b1-3)GalNAc
# Procedure, shortened: as §1
# [18] = target: Fuc(a1-2)[Gal(a1-3)]Gal(b1-3)GlcNAc(b1-6)GalNAc
# Procedure, shortened: as §1
# [19] = target: Fuc(a1-2)[Gal(a1-3)]Gal(b1-4)Glc
# Procedure, shortened: as §1
# [20] = target: Fuc(a1-2)[Gal(a1-3)]Gal(b1-4)GlcNAc
# Procedure, shortened: as §1
# [21] = target: Fuc(a1-2)[Gal(a1-3)]Gal(b1-4)GlcNAc(b1-2)Man
# Procedure, shortened: as §1
# [22] = target: Fuc(a1-2)[Gal(a1-3)]Gal(b1-4)GlcNAc(b1-2)Man(a1-3)[Fuc(a1-2)[Gal(a1-3)]Gal(b1-4)GlcNAc(b1-2)Man(a1-6)]Man(b1-4)GlcNAc(b1-4)GlcNAc
# Procedure, shortened: as §1
# [23] = target: Fuc(a1-2)[Gal(a1-3)]Gal(b1-4)GlcNAc(b1-2)Man(a1-3)[Fuc(a1-2)[Gal(a1-3)]Gal(b1-4)GlcNAc(b1-2)Man(a1-6)]Man(b1-4)GlcNAc(b1-4)[Fuc(a1-6)]GlcNAc
# Procedure, shortened: as §1
# [24] = target: Fuc(a1-2)[Gal(a1-3)]Gal(b1-4)GlcNAc(b1-3)GalNAc
# Procedure, shortened: as §1
# [25] = target: Fuc(a1-2)[Gal(a1-3)]Gal(b1-4)GlcNAc(b1-3)[Fuc(a1-2)[Gal(a1-3)]Gal(b1-4)GlcNAc(b1-6)]GalNAc
# Procedure, shortened: as §1
# [26] = target: Fuc(a1-2)[Gal(a1-3)]Gal(b1-4)GlcNAc(b1-6)GalNAc
# Procedure, shortened: as §1
# [27] = target: Fuc(a1-2)[Gal(a1-3)]Gal(b1-4)[Fuc(a1-3)]Glc
# Procedure, shortened: as §1
# [28] = target: Fuc(a1-2)[Gal(a1-3)]Gal(b1-4)[Fuc(a1-3)]GlcNAc
# Procedure, shortened: as §1
# [29] = target: Fuc(a1-2)[Gal(a1-3)]Gal(b1-4)[Fuc(a1-3)]GlcNAc(b1-3)GalNAc
# Procedure, shortened: as §1
# [30] = target: Fuc(a1-2)[Gal(a1-4)]Gal(b1-4)GlcNAc
# Procedure, shortened: as §1
# [31] = target: Fuc(a1-2)[GalNAc(a1-3)]Gal
# Procedure, shortened: as §1
# [32] = target: Fuc(a1-2)[GalNAc(a1-3)]Gal(b1-3)GalNAc(a1-3)[Fuc(a1-2)]Gal(b1-4)GlcNAc
# Procedure, shortened: as §1
# [33] = target: Fuc(a1-2)[GalNAc(a1-3)]Gal(b1-3)GalNAc(b1-3)Gal(a1-4)Gal(b1-4)Glc
# Procedure, shortened: as §1
# [34] = target: Fuc(a1-2)[GalNAc(a1-3)]Gal(b1-3)GlcNAc
# Procedure, shortened: as §1
# [35] = target: Fuc(a1-2)[GalNAc(a1-3)]Gal(b1-3)GlcNAc(b1-2)Man(a1-3)[Fuc(a1-2)[GalNAc(a1-3)]Gal(b1-3)GlcNAc(b1-2)Man(a1-6)]Man(b1-4)GlcNAc(b1-4)GlcNAc
# Procedure, shortened: as §1
# [36] = target: Fuc(a1-2)[GalNAc(a1-3)]Gal(b1-3)GlcNAc(b1-2)Man(a1-3)[Fuc(a1-2)[GalNAc(a1-3)]Gal(b1-3)GlcNAc(b1-2)Man(a1-6)]Man(b1-4)GlcNAc(b1-4)[Fuc(a1-6)]GlcNAc
# Procedure, shortened: as §1
binder,measurement,setting,value
"MGL (Homo sapiens), Q8IUN9 (protein) MTRTYENFQYLENKVKVQGFKNGPLPLQSLLQRLCSGPCHLLLSLGLGLLLLVIICVVGFQNSKFQRDLVTLRTDFSNFTSNTVAEIQALTSQGSSLEETIASLKAEVEGFKQERQAGVSELQEHTTQKAHLGHCPHCPSVCVPVHSEMLLRVQQLVQDLKKLTCQVATLNNNASTEGTCCPVNWVEHQDSCYWFSHSGMSWAEAEKYCQLKNAHLVVINSREEQNFVQKYLGSAYTWMGLSDPEGAWKWVDGTDYATGFQNWKPGQPDDWQGHGLGGGEDCAHFHPDGRWNDDVCQRPYHWVCEAGLGQTSQESH",glycan array binding signal (z-score),[1],-0.251
same,glycan array binding signal (z-score),[2],-0.229
same,glycan array binding signal (z-score),[3],-0.22
same,glycan array binding signal (z-score),[4],-0.232
same,glycan array binding signal (z-score),[5],-0.24
same,glycan array binding signal (z-score),[6],-0.24
same,glycan array binding signal (z-score),[7],-0.247
same,glycan array binding signal (z-score),[8],-0.244
same,glycan array binding signal (z-score),[9],-0.247
same,glycan array binding signal (z-score),[10],-0.172
same,glycan array binding signal (z-score),Fuc(a1-2)Gal6S(b1-4)Glc,-0.242
same,glycan array binding signal (z-score),[11],-0.254
same,glycan array binding signal (z-score),Fuc(a1-2)[Gal(a1-3)]Gal,-0.241
same,glycan array binding signal (z-score),[12],-0.24
same,glycan array binding signal (z-score),[13],-0.246
same,glycan array binding signal (z-score),[14],-0.238
same,glycan array binding signal (z-score),[15],-0.249
same,glycan array binding signal (z-score),[16],-0.248
same,glycan array binding signal (z-score),[17],-0.25
same,glycan array binding signal (z-score),[18],2.77
same,glycan array binding signal (z-score),[19],-0.237
same,glycan array binding signal (z-score),[20],-0.24
same,glycan array binding signal (z-score),[21],-0.248
same,glycan array binding signal (z-score),[22],-0.237
same,glycan array binding signal (z-score),[23],-0.239
same,glycan array binding signal (z-score),[24],-0.235
same,glycan array binding signal (z-score),[25],-0.231
same,glycan array binding signal (z-score),[26],-0.247
same,glycan array binding signal (z-score),[27],-0.248
same,glycan array binding signal (z-score),[28],-0.318
same,glycan array binding signal (z-score),[29],-0.239
same,glycan array binding signal (z-score),[30],-0.238
same,glycan array binding signal (z-score),[31],0.432
same,glycan array binding signal (z-score),[32],0.059
same,glycan array binding signal (z-score),[33],0.021
same,glycan array binding signal (z-score),[34],0.538
same,glycan array binding signal (z-score),[35],0.273
same,glycan array binding signal (z-score),[36],-0.194
